Laboratory results reported in the supplement of paper PMC10681739.
± gives the standard deviation of the averaged measurements. Over roughly 4,000 sequences, “arbitrary fluorescence units” has its median near 830; the highest 2% begin near 6,500. This part holds few or none of the hits.

biological target: RUNX1 (UniProt Q01196); assay: RUNX1 binding intensity (PBM fluorescence), RUNX1 alone (arbitrary fluorescence units); higher = stronger binding; conditions: RUNX1 concentration 2 nM; ETS1 concentration 0 nM
Description: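 gcPBM on 36-bp genomic-derived probes (partner site mutated) containing one RUNX1 site and no ETS1 site. Recombinant human RUNX1 (2 nM) was incubated alone or with ETS1 (25 nM) and detected by anti-RUNX1 antibody fluorescence. Values are medians over 4 replicate spots (not normalised). The probes sit in constant array flanks that are not printed.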
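Also: Full-length recombinant human RUNX1 bound to double-stranded DNA microarray spots, detected with an Alexa488-labelled secondary antibody after the anti-RUNX1 primary, read as scanned spot fluorescence.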

Chain of UniProt Q01196 (Q01196 whole entry): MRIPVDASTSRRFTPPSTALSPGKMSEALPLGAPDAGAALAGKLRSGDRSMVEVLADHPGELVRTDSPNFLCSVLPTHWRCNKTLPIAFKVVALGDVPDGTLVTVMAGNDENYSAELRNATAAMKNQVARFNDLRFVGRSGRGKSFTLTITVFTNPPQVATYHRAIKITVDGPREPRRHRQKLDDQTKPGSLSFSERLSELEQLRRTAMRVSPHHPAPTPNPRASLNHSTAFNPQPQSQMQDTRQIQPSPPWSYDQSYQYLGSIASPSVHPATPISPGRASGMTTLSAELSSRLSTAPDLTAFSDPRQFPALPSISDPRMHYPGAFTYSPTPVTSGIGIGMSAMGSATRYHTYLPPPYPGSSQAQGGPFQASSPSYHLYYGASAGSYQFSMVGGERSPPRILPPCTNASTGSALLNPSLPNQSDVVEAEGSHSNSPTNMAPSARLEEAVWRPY

Sequence | RUNX1 binding intensity
TGTGTAAGAGGCAACACCAAAACCACAAATATGAAA | 2010
GTGATGGCACCCACAAAGCTGCAGAGGAGGTGAGCA | 800
CGATTCTGGAGACAGGCCCCACCGTGCGGTAAACTG | 799
GAGCAGGGCTGCGGGGTCTTTACCGTCGGGCTCCGC | 699
TTCAATCACAGTAAACAGACGTCACCCACAGACCTA | 877
TGCCAGATCCAGCTGCGCCGGGGCCGAAACCACGCC | 688
TGTGAGAAGTCGGATCCTGTGGTGACCCAGTGGCCT | 755
GAAAACCACAGAGGCATTCAAAGACATGAAGCAGAG | 2350
TATTCAGGCTTACGGGTGATGTTTGTGGCCACCCGG | 746
ATGCCAAGGGACCTCCCTCCACAACCGCCCCCAGCT | 930
CTCTCCACCTCCTCCCGACCAGGACCGCACCCCCCC | 1780
AAGATGCCCCCTTCAGCTGGAAAGCGGTAATGCCCA | 800
CTGACACTCCCGGGAGCCTTGTAGCCACAGGAATCA | 757
CAGCTGCGGGCCTGGGTGTACGGAGCCCCGAACAGG | 721
TGCACCCGCCACTTTCGCATCGAACCGCCGCTTCAA | 1050
GGCGCCCGGGAATCTGTGTGGCGCTGCGGGCCGCGC | 616
CCTCCGCTGTGGTGTCTGTAACTACTGCCTCAGGAG | 808
CAGGCTGCTGTGGCTACTGCAGCACTGCCTCCCGCT | 741
GTATCACTGCCTGTTTTCCTCTGTGGCTTACTGCTG | 1090
CGGGTCCTGCGGGCGCTGGCGGCAAGAGGCGAGGCG | 736
CTCGTCAACCACACGTCACCCCGCCTACCTCCCGAC | 1500
TTGTGGTTTGGTTTAACCCCTGTAATTGCCTGTAAA | 1030
GCCGCGCTTTTCGGAGCTGGTCGCCGCAGCGAACAA | 836
TGCTCCACTCCGCAACGCTGCTGTGATTTGCTGTTT | 808
GTGTGGTGAGCCACAGGCTGCCATAGACTCGGAGGC | 728

Sequence | RUNX1 binding intensity
CCGCCACCGCAGCTAAAACTTCAGGCGCCGGGACCG | 1290
CGGCGCTCGCCGAAGTGCCGCGGTGCCTGCTCTGCA | 773
CTCACTGTGGTGCTATACTTTGTCTCCTTTCTCTTT | 1090
CCTTGTTCACAGCCTTGCACTCTGCGGGGACGGGAG | 880
CAAAGCAACCACCACCTGGTGGCGCCACCTCCCCCC | 944
CGGAGCCCAACCACCGGCACTTTCGGGGGGCGGGTG | 831
TCTACCCTTCATGCTCTGGCCTGGGCTGTGGTAGCT | 709
TCCTCCCACACCCACAGGCTTCCAGCCATAGCTGCA | 1190
GCGCGGTGTAGCAATTGGAGGACCCATGAAGAAGGG | 826
ATGGCAACCACAGTCTGTAACCGACACCGTAAGCGA | 977
CCCTTGTGGCCATGTTACACGCCAGCAAATTGAGCT | 1930
CTTGCGGTCCCCTCGGGTGGTGGCAGCATGTAGGTA | 956
CAATGTGGTTAAAACCAGTTAGTTCCCTCGGAGGTT | 2060
CCGACCGCAGGGGCGGGGCCGGAGCCAGCAAGCGCT | 1070
GGGGGAATGTAGGACGTATCATCGCCCACAAGAAAG | 809
TCCAGCATGTGCTGAACCTCCAGAAACCACCGGCTT | 802
CCTAAGCGGTTAAGGAACTGGCTTTGACAGGCAGTG | 865
GTGCAGACAGGCAATAGCTGCTCTGCGGCAGCCCGA | 712
CCACCACCCACAGCAGCTGCAAACGTCCTCCAGACC | 1080
CCCTGCCTGAGGGCAAGGCGAGGGCACCCACAGCCT | 781
GCGCCATCTCCGCTGCGCAAGGCACCACAGGCCCTG | 807
ACGGTCAATGGCCGCAAACCGGGAGCAAGGCGGGAG | 780
CGTGTTCCGTAACCACCACCCCTCTTCATGTTTCTC | 2410
ACTCGCGCACCCCCACAGTTCCCCTTCAGGCAGTGG | 915
CAGAGGACAGCATGCCAACCCCAAAACCGCAGCGAC | 6310

Sequence | RUNX1 binding intensity
CGTGGTACCGCAGAGGCCAATCTTCAACAGGCAGTC | 1160
GGGTGGCGGTCACGTGCCCAGAACGCCCGGCGTTCG | 758
AACACAGGTTGTGGGAGCAAGAAAGGAGGTGGCTTG | 751
CCACTTACCGCGAGAACGCGGAGTCCTGCGCATGGC | 922
GCGAGGGTGGAACGAAGCAGTGACCGCGCTCCTCTC | 809
GACAAGATTGCGGGTGGGAACCCCATCAGGTTTGTT | 929
ACTACAGGAGGAGACTACAGCCTAAACCACATGCAA | 907
AGACCCGGGAATGGTGGGTGTTTCTTGCAACCACGG | 696
GTGCCTCCCGCAAGTTCTGTCCCCTCCGTCCCTTCA | 1210
CAGGGTGGAATCATGAAGAGAAACCACACTTAACCT | 738
GCGCTGTACTGCGGCTTGTGCCGCTTCGGCCAGAAG | 798
GGCTAAGATGGAAACCACGAGCGGAATTCAGACATA | 825
CCATATCTGGCCTCCTAAGGAGGAACCACAAACCGT | 932
GGCAAACAGTAAACACTCCCAGGGCTGTGGGCTCCT | 749
AGGGGAGGTGAGAATAGGGTGCCCACCCCCGCATTC | 710
GAGGTTCATGCGGTCCCTTTTCGGCTGTTCCCGGAG | 911
TGAAACCACCTCTGTCCAACCTGGATTCCTCTCCCG | 913
GGTGCGCAGCGCGCCGCAGCGACGGACCTTCTGCAA | 636 ± 40
GAAGCAGACAGGCAGTGGGTCTGAGCGGTGGAGGGA | 662
CAAAACGGGACACTGGAACCAAGCGGTTATCTCAGA | 759
CCTAGAACCGTAAGAGAAAGGGGCTGCGGTGCAGCA | 745
GAGGTAGCCACCCACAACCAATCAGGCAACGGCGGC | 720
CCGGGCGGTTGAAAAGTCCGAGAGAATCAGGCTGGA | 761
CCCTCAGCGAAAGTGGAAGCTGTGGTTTCCAAAGGC | 881
CTGTCCGCGACATACGGGACCTGCGGGACCGCCGAT | 772

Sequence | RUNX1 binding intensity
GCACAGCGGTCACAGAGGTGACGCGCAAGGAGACTG | 827
TCTCTTTCGTTCTCTGGTAGCTTTGTGGTAGCTTTG | 1490
CTCTTTTATACCACAAGGAGGAAAAGGACATGAACC | 1150
CCGCCGGGCTGCGGCGCTGGAACTGGACCAATCCGG | 751
CTTCAGCAAGGGCGAGGCCGGGCGCGGTGGCTCACG | 703
TAGGGGGGCGCGGTGAGCCCCGGCGGGAATCGAAGC | 716
CAATCAACCACAATGTGACCCTACAGGCGCAAAAAA | 1390
TAAATCGGCAACTCGCCGCTCAGCCCGCAGCCGCCG | 870
CAAAATGCGCGGTCTGGAGAGGCAACAAAGCAGTGG | 832
TTAGCCGTATGTGGTTTAAAAACTTGCTGTCATTGA | 1120
TTTATCCTTATTTGCTGGCTTCGCCCACAAGCACAG | 1010
AAACTGCGGCGCGAAAGTCTCTCGGGAATGACGCAA | 712
AACCTCACCAGCCACAGACAGGCAGCAAGAGGGCTG | 841
CCAGCAGCACGTCCCCCTTCTTCGTCCCGCAGAGGG | 789
TTCTTCAGCAAGGCGGGCTTGCGCCGCAGGAGCGGG | 687
AAAGGGCCTGTGGTAACAAAGCAATATCTTGTTGAA | 883
TGTGTAACTGCCTGGCTTTGGTGGTTTCCCCCTCCT | 792
TGAAGGGTGGTTGCCGCCTCCCCTTCGTTCCCAGTC | 910
AACTGAACCACCACCACTTAACCTCTAAGGAATCGG | 1100
TGGCGTGGTTTTTTTTTTTTTTTTCACCCGGCAACC | 1180
GGACCTGCGGCGACCTGTAGGCGAAAGTCCGTGGCT | 710 ± 13
AGTACAAAGGGGACATGTCTCTTGGTGGTTGATAAG | 721
ACATGAAAAGCTGTAAGCAGTGTCTGCGGCTTTCTC | 721
GCCGATTCCCGGTTCGCTCGGCCGCGGTCGCTATGG | 795
CCTAGCCGACGCCCGCAATAGGCGGCAGTGGCCGGG | 770

Sequence | RUNX1 binding intensity
GCGCACCCGCTGCGGCCTCCACAGGCAGTGCCCGGC | 745
GTTTTGTTATCGGCCCGCACCTAGAGGCCGCAAGGC | 872
CCCATTGCCTGCTCTCCAGAGTTAACCACTGAAGTC | 1220
AAAGAACTGCCTGAGGTGCTTGAGGTTAGGCTATGG | 700
AGGGCGCCGCCTCCGGGAGCCCGCAAGCGGCCTCCG | 681
ATCTTAAGTGATTCCTGACACCACAAATCCCCAAAC | 893
GCCTGCCTGCGGGCGAGTGGAGTCAGGCTGAGTGTC | 677
CAGGTCCCCACACAAGACTGAGATCTCCGCTCTGAT | 759
TGCAGCTTTCTGTCTGAGGCTTTGTGGTCCTTTCAT | 958
CTGCGGTGGGCTCCGCCCAGTTCGAACTGCCTGTAG | 699
CTACAAACGGCTTCGTCCTGCCTAACCACAACCTCA | 2130
GTCCTCTGCGGTGGCGCCAGCCTCCTTTCAATTCCA | 2550
TGCCGCGGTTCACATGCTGGTCACACCACTTGCTGA | 749
AGTGGCTACCACTGCCTTCTCTTACCACAGTTCCTT | 1300
GCTGTTTATCTCCGTGCCTGCGGCTGGAGCTTCTTA | 817
GTCTTGCTGCCTGAGAATCTTAACCACCAGCTTGCC | 1150
CCTAAGTAACCACATTCTCGCTTGCTCCTTCCACAC | 3680
AGGCGCGCATGGTGTCGCAAAAACCCGCAGCGCTAC | 740
CTGCCGTAAGCTGCCCCTCCACCATTTTGTGGCCCG | 851
TCCTAAAGCAGGCAATAGTGAGGCTACCGCAGTGTC | 794
CCATCTCCGCGCACGTCTGCAGATGCGGTAGTCGAT | 846
GGCTTACGGCGGGGTACCCTCCTCTGTGGGCGGGGC | 715
GCCCTCGGAGCCACAACAACCTCCACTTTCGCCTCC | 1360
TACCTAGACCCTTGCCGCCCTTACCGCGGCCAGACA | 901
TGATCAGGCAGGAGAAGCGCAGAGGTGGACCCGCAA | 751
